Source: PubChem BioAssay (NCATS)
The shares of active, inactive and inconclusive entries below differ from those in the screen. For some of these results: Potencies of inconclusive entries are doubtful fits and often do not repeat. For some of these results: “Side channel” marks fits to a control or component signal instead of the main read-out. Active and inactive are the calls of the source. Unless noted, calls come from the whole dose curve; as a rule, active = well fitted curve in the direction sought with a large enough effect; inconclusive = small, poorly fitted or top-dose-only effect, or another doubt; inactive = no such curve, though single readings can be large; an effect the other way counts as inactive or inconclusive.

Tests used:
[1] = molecular target: 3',5'-cyclic-AMP phosphodiesterase 4B (Homo sapiens) (UniProt Q07343); experiment: qHTS Assay for Inhibitors of PDE-IV (AID 607; active = well fitted activation curve with a large enough effect in the main read-out, with a control signal flat, not every such curve was filed as active; inconclusive = small, poorly fitted or top-dose-only effect, or effect the other way, or a change in a side signal; note: potency is the fitted concentration of half-maximal effect); conditions: HEK293 ACTOne CNG channel cells, membrane potential fluorescence; activation (PDE inhibition): at 22.9 µM (top of the series)
Sequence of UniProt Q07343 (Q07343 whole entry, looked up): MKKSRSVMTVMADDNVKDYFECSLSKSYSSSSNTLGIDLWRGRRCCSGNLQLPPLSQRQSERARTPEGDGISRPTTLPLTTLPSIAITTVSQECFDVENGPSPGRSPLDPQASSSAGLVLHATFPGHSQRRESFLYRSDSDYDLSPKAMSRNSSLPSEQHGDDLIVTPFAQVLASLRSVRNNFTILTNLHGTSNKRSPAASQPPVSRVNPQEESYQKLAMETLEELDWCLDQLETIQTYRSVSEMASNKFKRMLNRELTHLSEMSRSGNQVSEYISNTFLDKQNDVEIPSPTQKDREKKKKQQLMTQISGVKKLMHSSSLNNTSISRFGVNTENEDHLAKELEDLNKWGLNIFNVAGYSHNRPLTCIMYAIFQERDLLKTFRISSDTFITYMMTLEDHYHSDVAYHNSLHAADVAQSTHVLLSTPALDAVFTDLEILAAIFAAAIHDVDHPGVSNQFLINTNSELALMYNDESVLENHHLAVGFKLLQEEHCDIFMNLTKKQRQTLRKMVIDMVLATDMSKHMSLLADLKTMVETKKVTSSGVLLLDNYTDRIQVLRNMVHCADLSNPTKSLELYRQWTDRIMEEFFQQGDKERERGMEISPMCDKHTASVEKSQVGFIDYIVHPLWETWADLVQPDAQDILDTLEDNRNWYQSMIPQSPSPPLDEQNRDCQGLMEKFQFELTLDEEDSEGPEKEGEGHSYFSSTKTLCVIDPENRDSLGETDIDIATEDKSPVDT
In short: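 The readout is membrane depolarisation from a cAMP-sensing CNG channel, detected with a potential dye at ex 535/em 590. Cells were HEK293-derived (endogenous PDE-IV) at 1000 cells/well, titrated up to 22.9 uM final.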

[2] = molecular target: Cytochrome P450 2D6 (Homo sapiens) (UniProt P10635); experiment: qHTS Assay for Inhibitors and Substrates of Cytochrome P450 2D6 (AID 891); conditions: recombinant CYP2D6, luciferin-ME EGE luminescence; activity change, negative = inhibition: at 57.1 µM (top of the series);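 note: luciferin methyl ether substrate demethylated by CYP2D6 with NADPH regeneration; top concentration of the series differs between compounds; % is set by controls: 0 for no effect and ±100 for the full control effect; nearly all actives have a fitted effect of over 60% in size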
Sequence of UniProt P10635 (P10635 whole entry, looked up): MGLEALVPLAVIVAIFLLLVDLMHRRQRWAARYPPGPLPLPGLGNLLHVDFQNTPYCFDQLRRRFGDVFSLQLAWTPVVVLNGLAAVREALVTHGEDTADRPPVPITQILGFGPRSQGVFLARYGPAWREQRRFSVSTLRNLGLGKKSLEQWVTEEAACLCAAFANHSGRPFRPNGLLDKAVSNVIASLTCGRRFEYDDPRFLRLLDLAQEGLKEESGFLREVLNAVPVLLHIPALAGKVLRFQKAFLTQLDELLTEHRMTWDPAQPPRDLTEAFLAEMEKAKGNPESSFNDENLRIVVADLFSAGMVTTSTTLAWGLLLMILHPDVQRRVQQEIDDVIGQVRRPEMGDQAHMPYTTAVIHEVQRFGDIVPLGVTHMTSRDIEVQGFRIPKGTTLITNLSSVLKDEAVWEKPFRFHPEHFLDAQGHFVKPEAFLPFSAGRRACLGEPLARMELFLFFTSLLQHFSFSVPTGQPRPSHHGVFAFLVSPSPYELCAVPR
In short: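 Luminescent read-out of luciferin formed by 5 nM human CYP2D6 demethylating 30 uM Luciferin-ME EGE (Km level) over 60 min at room temperature after NADPH regeneration addition. Data normalized to full inhibition by 1.43 uM quinidine.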

[3] = molecular target: Endonuclease 4 (Escherichia coli (strain K12)) (UniProt P0A6C1); experiment: Counterscreen for APE1 Inhibitors: qHTS Validation Assay for Inhibitors of Endonuclease IV (AID 1708); note: % is set by controls: 0 for no effect and ±100 for the full control effect
In short: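 Read-out: fluorescence rise (ex 525/em 598 nm) from incision of a TAMRA/BHQ-2 double-stranded THF abasic-site substrate (50 nM), measured kinetically; third-minus-first read difference gave reaction progress. Enzyme 2 nM.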

[4] = qHTS for differential inhibitors of proliferation of Plasmodium falciparum line 3D7 (AID 1876);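 note: parasite growth measured after three days of culture; 0% = vehicle wells and -100% = reference inhibitor wells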
[5] = qHTS for differential inhibitors of proliferation of Plasmodium falciparum line W2 (AID 1883); conditions: Potency: Plasmodium falciparum W2 proliferation inhibition;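 note: parasites grown with compound for 72 h before lysis and staining; 0% = vehicle wells and -100% = control inhibitor wells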
[6] = Validation screen for small molecules that induce DNA re-replication in MCF 10A normal breast cells (AID 463097); note: 0% is about no effect; nearly all actives have a fitted effect of over 60% in size
In short: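 250 MCF 10A cells/well; compound pin-transferred; 48 hr, 37 C, 5% CO2; Hoechst 40 min; imaged 405/500-530 nm. Hits = more high-intensity nuclei.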

[7] = Quantitative high throughput screen for delayed death inhibitors of the malarial parasite plastid, 96 hour incubation (AID 488745); note: % is set by controls: 0 for no effect and ±100 for the full control effect; nearly all actives have a fitted effect of over 70% in size
In short: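 Two-generation (96 h) exposure of luciferase-reporter P. falciparum in erythrocytes, 2% hematocrit, 0.1% parasitemia final, 37 C, 5% CO2, RPMI 1640 with 0.5% Albumax. Growth inhibition scored by reduced luminescence.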

[8] = molecular target: M-phase phosphoprotein 8 (Homo sapiens) (UniProt Q99549); experiment: qHTS Validation Assay for Inhibitors for MPP8 Chromodomain Interactions with Methylated Histone Tails (AID 488949);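 note: AlphaScreen signal from MPP8 chromodomain bound to biotinylated H3K9me3 peptide; top concentration of the series differs between compounds; % is set by controls: 0 for no effect and ±100 for the full control effect; nearly all actives have a fitted effect of over 55% in size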
Sequence of UniProt Q99549 (Q99549 whole entry, looked up): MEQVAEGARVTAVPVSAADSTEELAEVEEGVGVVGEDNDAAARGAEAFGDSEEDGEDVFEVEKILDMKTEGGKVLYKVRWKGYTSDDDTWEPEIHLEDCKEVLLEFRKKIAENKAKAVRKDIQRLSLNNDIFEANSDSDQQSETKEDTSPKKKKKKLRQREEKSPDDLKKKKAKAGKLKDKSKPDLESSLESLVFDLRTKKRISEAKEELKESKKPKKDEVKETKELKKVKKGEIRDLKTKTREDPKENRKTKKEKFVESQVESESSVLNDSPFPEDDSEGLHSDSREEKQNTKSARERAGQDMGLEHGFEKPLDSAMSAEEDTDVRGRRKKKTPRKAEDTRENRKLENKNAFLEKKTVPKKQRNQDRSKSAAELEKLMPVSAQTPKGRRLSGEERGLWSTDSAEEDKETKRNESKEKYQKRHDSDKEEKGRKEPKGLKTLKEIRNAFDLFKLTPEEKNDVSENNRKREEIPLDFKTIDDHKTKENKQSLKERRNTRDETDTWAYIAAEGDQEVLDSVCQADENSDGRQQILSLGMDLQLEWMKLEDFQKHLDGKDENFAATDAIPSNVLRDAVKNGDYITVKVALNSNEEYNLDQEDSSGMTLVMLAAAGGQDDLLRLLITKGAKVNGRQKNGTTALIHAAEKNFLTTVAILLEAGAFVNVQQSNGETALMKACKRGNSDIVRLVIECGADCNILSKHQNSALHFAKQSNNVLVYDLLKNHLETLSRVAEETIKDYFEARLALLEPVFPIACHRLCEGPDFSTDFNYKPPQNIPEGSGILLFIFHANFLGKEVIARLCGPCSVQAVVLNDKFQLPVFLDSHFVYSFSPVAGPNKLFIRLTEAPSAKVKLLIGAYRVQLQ
In short: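 AlphaScreen read-out: streptavidin donor and nickel chelate acceptor beads (final 10 ug/mL), 30 min in the dark at RT. Complex of 50 nM MPP8 and 50 nM b-H3(1-18)K9me3 peptide had been exposed to compounds for 30 min beforehand.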

[9] = molecular target: ATPase family AAA domain-containing protein 5 (Homo sapiens) (UniProt Q96QE3); experiment: Validation screen for small molecules that inhibit ELG1-dependent DNA repair in human embryonic kidney (HEK293T) cells expressing luciferase-tagged ELG1 (AID 493107);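 note: cells co-treated with the DNA-damaging agent 5-fluorouridine alongside compound; % is set by controls: 0 for no effect and ±100 for the full control effect; inhibitors lower the ELG1-luciferase luminescence signal; nearly all actives have a fitted effect of over 70% in size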
Sequence of UniProt Q96QE3 (Q96QE3 whole entry, looked up, the tested form may be a part): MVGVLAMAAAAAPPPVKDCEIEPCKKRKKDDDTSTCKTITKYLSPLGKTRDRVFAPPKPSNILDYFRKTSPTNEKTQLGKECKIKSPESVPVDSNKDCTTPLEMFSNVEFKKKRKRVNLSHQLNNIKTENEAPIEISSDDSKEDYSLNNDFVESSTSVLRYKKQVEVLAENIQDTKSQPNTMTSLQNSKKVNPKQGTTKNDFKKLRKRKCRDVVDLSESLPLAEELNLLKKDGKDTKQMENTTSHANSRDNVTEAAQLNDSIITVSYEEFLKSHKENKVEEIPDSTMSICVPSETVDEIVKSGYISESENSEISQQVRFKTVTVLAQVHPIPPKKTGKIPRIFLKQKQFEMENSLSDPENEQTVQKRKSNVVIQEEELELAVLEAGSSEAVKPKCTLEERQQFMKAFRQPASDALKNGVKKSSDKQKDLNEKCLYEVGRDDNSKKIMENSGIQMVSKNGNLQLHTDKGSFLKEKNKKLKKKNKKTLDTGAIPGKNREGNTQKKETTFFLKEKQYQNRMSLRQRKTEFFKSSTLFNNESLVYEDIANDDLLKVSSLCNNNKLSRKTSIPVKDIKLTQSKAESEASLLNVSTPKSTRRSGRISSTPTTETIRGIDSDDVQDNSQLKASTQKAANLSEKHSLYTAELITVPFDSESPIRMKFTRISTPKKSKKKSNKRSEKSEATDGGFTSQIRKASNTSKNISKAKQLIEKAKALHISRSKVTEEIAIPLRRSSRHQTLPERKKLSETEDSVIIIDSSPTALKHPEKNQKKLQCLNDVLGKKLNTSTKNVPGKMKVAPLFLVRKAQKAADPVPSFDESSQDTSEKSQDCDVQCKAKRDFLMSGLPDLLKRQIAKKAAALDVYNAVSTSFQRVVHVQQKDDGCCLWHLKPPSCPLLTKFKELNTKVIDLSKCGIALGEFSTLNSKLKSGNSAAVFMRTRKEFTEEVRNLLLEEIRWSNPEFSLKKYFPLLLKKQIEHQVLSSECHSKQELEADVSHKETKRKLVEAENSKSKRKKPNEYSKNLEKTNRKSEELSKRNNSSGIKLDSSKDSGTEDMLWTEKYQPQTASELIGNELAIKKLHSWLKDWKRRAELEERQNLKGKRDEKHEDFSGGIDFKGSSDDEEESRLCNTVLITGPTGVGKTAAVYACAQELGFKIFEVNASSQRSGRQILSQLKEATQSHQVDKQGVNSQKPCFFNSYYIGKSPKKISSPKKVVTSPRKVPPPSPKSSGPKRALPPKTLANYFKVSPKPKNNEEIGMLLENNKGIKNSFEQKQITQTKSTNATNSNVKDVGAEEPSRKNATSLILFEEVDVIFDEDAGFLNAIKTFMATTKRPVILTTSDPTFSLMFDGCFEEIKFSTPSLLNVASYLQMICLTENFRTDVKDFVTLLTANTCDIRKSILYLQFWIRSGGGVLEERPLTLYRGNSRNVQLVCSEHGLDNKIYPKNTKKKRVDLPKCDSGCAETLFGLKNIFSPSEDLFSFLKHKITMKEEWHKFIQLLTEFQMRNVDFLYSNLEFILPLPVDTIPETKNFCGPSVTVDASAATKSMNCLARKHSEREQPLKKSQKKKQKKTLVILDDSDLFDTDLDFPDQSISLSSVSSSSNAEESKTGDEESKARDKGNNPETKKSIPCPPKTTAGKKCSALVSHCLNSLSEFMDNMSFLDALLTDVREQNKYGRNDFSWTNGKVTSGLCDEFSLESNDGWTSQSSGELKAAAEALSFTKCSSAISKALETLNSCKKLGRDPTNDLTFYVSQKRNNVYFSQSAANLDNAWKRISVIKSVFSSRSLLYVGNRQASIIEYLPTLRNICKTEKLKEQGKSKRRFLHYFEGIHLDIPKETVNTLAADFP
In short: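 Compounds reducing 5-fluorouridine-driven ELG1-luciferase signal in HEK293T cells were scored; exposure lasted 16 hr at 37 °C with luminescence detected via ONE-Glo.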

[10] = Natriuretic polypeptide receptor (hNpr1) antagonism - Pilot counterscreen GloSensor control cell line (AID 1347045; calls by dose curve; note: potency is the fitted concentration of half-maximal effect)
In short: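 The SNP-driven cGMP luminescence signal (50 uM, 20 min, room temperature) was measured in GloSensor HEK293 control cells. Compounds were tested as a LOPAC titration series and preincubated for 30-50 min.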

[11] = molecular target: Tyrosine-protein phosphatase non-receptor type substrate 1 (Homo sapiens) + Leukocyte surface antigen CD47 (Homo sapiens) (UniProt P78324+Q08722); experiment: CD47-SIRPalpha protein protein interaction - HTRF assay qHTS validation (AID 1347058; active = well fitted curve in the direction sought with a large enough effect in the signal ratio, not every such curve was filed as active; inconclusive = small, poorly fitted or top-dose-only effect, or effect the other way, or a change in a side signal; inactive = no such curve, though single readings can be large or run the other way; the % refers to the signal ratio; note: potency is the fitted concentration of half-maximal effect)
Sequence of UniProt P78324 (P78324 whole entry, looked up, the tested form may be a part): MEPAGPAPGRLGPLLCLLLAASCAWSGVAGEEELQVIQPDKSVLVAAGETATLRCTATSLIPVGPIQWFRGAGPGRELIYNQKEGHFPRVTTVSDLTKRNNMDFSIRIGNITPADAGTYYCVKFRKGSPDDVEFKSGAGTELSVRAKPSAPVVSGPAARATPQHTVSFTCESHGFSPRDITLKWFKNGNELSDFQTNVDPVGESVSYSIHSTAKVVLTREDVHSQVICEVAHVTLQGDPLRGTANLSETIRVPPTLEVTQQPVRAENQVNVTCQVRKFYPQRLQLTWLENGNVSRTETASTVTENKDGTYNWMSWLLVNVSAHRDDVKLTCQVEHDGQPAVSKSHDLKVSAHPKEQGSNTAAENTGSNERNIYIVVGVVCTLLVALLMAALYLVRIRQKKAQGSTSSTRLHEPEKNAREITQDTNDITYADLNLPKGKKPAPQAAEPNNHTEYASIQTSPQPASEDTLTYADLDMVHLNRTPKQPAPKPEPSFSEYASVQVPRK
Sequence of UniProt P78324 (Q08722 whole entry, looked up, the tested form may be a part): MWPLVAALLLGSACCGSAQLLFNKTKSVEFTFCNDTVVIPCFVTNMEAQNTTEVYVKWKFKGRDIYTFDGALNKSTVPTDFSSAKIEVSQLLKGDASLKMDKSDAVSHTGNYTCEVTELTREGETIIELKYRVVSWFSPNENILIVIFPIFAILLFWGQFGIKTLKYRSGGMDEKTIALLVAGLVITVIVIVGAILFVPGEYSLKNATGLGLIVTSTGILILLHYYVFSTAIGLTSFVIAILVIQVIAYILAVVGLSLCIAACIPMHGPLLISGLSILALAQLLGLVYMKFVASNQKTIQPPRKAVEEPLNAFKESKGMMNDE
In short: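 Soluble extracellular domains (6His-CD47, Avi-tag-biotinylated SIRPalpha) in PBS pH 7.4 with 0.05% IGEPAL CA-630. Compounds were preincubated 30 min at RT with CD47 and anti-His-Eu, then SIRPalpha and SAV-XL665 were added. TR-FRET 665/615 ratio.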

[12] = qHTS of pediatric cancer cell lines to identify multiple opportunities for drug repurposing: Primary screen for A673 cells (AID 1347092); conditions: A673 Ewing sarcoma viability, CellTiter-Glo ATP luminescence, 48 h; activity change, negative = cytotoxic: at 46 µM (top of the series); note: % is set by controls: 0 for no effect and ±100 for the full control effect; nearly all actives have a fitted effect of over 45% in size
In short: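 48 h compound exposure, A673, 500-1,000 cells/well, 37 degrees C/5% CO2. MIPE: 11-point, 0.78 nM-46 µM; NPC: 8-point, 0.59 nM-46 µM (final). Readout CellTiter-Glo luminescence after 15 min RT.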

[13] = qHTS of pediatric cancer cell lines to identify multiple opportunities for drug repurposing: Primary screen for NB-EBc1 cells (AID 1347095);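 note: plate controls were DMSO neutral control for no effect and bortezomib for full effect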
In short: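 Phenotypic viability qHTS, 48 h compound exposure, CellTiter-Glo luminescence read-out; multi-concentration dosing so that potency and efficacy derive directly from the primary screen's curves.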

[14] = qHTS of pediatric cancer cell lines to identify multiple opportunities for drug repurposing: Primary screen for SK-N-SH cells (AID 1347098); note: potency is the fitted concentration of half-maximal effect; nearly all actives have a fitted effect of over 65% in size
In short: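 Cells (500-1,000/well) rested 5 h, then received compounds for 48 h; metabolically active cells were measured by CellTiter-Glo luminescence. Final concentrations spanned up to 46 µM (MIPE, 11-point) or 0.59 nM-46 µM (NPC, 8-point) in primary screens, 11-point in follow-ups.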

[15] = molecular target: N-terminal Xaa-Pro-Lys N-methyltransferase 1 (Homo sapiens) (UniProt Q9BV86); experiment: qHTS Assay for Inhibitors of N-terminal methyltransferase 1 (NTMT1): LOPAC validation of the NTMT1 SAHH-coupled ThioGlo3 Assay (AID 1347143);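 note: SAH from peptide methylation measured as thiol fluorescence via SAHH coupling and ThioGlo3; % is set by controls: 0 for no effect and ±100 for the full control effect; nearly all actives have a fitted effect of over 70% in size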
Sequence of UniProt Q9BV86 (Q9BV86 whole entry, looked up): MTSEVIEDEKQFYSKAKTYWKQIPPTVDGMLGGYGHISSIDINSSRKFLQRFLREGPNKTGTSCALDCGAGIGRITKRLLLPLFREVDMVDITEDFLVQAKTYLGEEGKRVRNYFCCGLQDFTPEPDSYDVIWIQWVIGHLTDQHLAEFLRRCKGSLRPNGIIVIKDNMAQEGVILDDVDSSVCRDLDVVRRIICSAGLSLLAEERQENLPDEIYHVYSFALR
In short: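 Steps: dispense 125nM NTMT1; pin-transfer test compounds at several concentrations, with 1uM RCC1-6 peptide as control; incubate 1 min; start with reagent holding 100uM SAM, 10uM SAHH, 15uM ThioGlo3; read at 0 and 30 min.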

[16] = molecular target: Lysine-specific demethylase 5B (Homo sapiens) (UniProt Q9UGL1); experiment: Optimization screen for KDM5B Histone Demethylases FDH coupled qHTS against the LOPAC library (AID 1347166); note: 0% is about no effect
In short: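 KDM5BDeltaAP (200nM final) in 50mM HEPES pH 7.5, 0.01% Tween-20 was preincubated with compound for 10 min at room temperature. A substrate mix of 12.5uM H3K4Me3, 25uM a-ketoglutarate, ascorbate, Fe2+, NAD+ and formaldehyde dehydrogenase was then added. NADH fluorescence (340/450 nm) was read initially and after 30 min.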

[17] = Primary qHTS for inhibitors of La Crosse Virus (LACV) - induced cell death in SH-SY5Y cells (AID 1508616);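 note: top concentration of the series differs between compounds; 0% = infected DMSO wells and 100% = uninfected DMSO wells; higher means more rescue of cells from virus-induced death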
In short: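 Screening measures cell viability in LACV-infected SH-SY5Y cultures. Compound was added before virus (0.01 MOI), and ATP was detected by luminescence 6 days later.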

[18] = Primary qHTS for small molecule stabilizers of the endoplasmic reticulum resident proteome: Secreted ER Calcium Modulated Protein (SERCaMP) assay (AID 1508630); conditions: SH-SY5Y GLuc-SERCaMP (Gaussia luciferase released on ER calcium loss) secretion, thapsigargin, luminescence; activity change, negative = inhibition: at 38.4 µM (top of the series) unless noted; note: potency is the fitted concentration of half-maximal effect
In short: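 The SH-SY5Y reporter protocol was run at 3 concentrations up to 38.3 uM (primary) or 11 concentrations (follow-up): 16 h compound, 100 nM thapsigargin for 4 h, then extracellular luciferase luminescence.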

[19] = Primary qHTS for inhibitors of nuclear receptor binding SET domain protein 2 (NSD2) in an RCH-ACV wild type WT cells (2C) (AID 1645877); conditions: activity change, negative = cell killing: at 44.9 µM (top of the series) unless noted; note: % is set by controls: 0 for no effect and ±100 for the full control effect; nearly all actives have a fitted effect of over 70% in size
KB-3-1 = experiment: Cytotoxic Profiling of Annotated Libraries Using Quantitative High-Throughput Screening (AID 1296008); conditions: Five cell lines viability, CellTiter-Glo ATP luminescence, 48-72 h; max response: hits give low values; note: % is set by controls: 0 for no effect and ±100 for the full control effect; nearly all actives have a fitted effect of over 60% in size
In short: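 Cells exposed to compounds for 48 or 72 hr at 37 degrees Celsius. Viability read as ATP-coupled luminescence with CellTiter-Glo after 10 min at room temperature.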

CASKI = experiment: Primary qHTS to identify gynecologic anti-cancer compounds using libraries of approved drugs and bioactive compounds (AID 1345084); conditions: Gynecologic cancer cell panel viability, ATPlite luminescence, 48 h; series mostly up to 57.5 µM; note: potency is the fitted concentration of half-maximal effect; nearly all actives have a fitted effect of over 55% in size
In short: (§1)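 Cells, 1,000 per well, plated 16 h, then exposed 48 h at 37 C to compounds. Viability by ATPlite luminescence after 15 min at room temperature.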

PA-1 = experiment: as above; conditions: Gynecologic cancer cell panel viability, ATPlite luminescence, 48 h; series mostly up to 57.5 µM
In short: as §1
Tags give direction and shape of the fitted curve.

Nc1cc(=O)[nH]c(N)n1
inactive: Potency [2] | Potency [3] | Potency [4] | Potency [5] | Potency [6] | Potency [7] | Potency [8] | Potency [9] | Potency [12] | Potency [13] | Potency [15] | Potency [16] | Potency [17] | Potency [19] | max response (KB-3-1) -2.08%
inconclusive: Potency [1] 19 µM [falling, single point] | Potency [10] 0.0207 µM [inhibitor, full curve, poor fit] | Potency [11] 23.3 µM [side channel, falling, single point] | Potency [14] 0.0344 µM [cytotoxic, full curve, poor fit] | Potency [18] 2.24 µM [inhibitor, full curve, poor fit] | Potency (CASKI) 6.31 µM [cytotoxic, single point] | Potency (PA-1) 39.8 µM [rising, single point]
